According to patent US20210230213A1, “ARAMCHOL SALTS” (GALMED RESEARCH AND DEVELOPMENT LTD., priority 2013, published 2021):

Settings: crude reaction mixture in water maintained 3 days

| Molecule | Stability in water (HPLC) after 3 days |
| --- | --- |
| 2-diethylamino-ethanol | good |
| CN(C)CCO [Deanol] | good |
| Diethanolamine | good |
